In paper PMC12136788 one finds binding signal data, which are given here for 22 molecules.

To fix the notation:
T1: UNK ZnF1-6 (called full-length) (human, UniProt Q9C0B0 30-357)
T1 sequence: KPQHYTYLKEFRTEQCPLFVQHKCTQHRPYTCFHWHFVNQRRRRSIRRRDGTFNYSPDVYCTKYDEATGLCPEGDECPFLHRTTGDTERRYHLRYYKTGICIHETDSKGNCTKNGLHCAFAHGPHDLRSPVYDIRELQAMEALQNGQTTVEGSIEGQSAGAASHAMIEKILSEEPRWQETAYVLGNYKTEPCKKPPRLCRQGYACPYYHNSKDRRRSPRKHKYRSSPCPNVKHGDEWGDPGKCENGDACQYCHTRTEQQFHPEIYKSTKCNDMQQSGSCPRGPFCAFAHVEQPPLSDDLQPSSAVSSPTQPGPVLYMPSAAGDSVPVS

B1: chr15:78283234:78283431:-|three_prime_utr|ENSG00000140395|control|control|control (ssRNA)
RNA: GGGAGUUCUACAGUCCGACGAUCUCUCCAGGCUUAUGCUGCAAAGAGAAUGUACGGAUUGAUCAUGACAUUCCUUACCUUCUUAGGCUUGUUUAAAAGAAAUAUAGCAUUUAUUGUAGCAAAGACUUAAAUUUUGUAGAUACACAACAGAGGAUUGAGCAUCA
B2: chr7:7607225:7607326:+|3pUTR|ENSG00000164654|msi1|total|mutant (ssRNA)
RNA: GGGAGUUCUACAGUCCGACGAUCUUUGAGUGAUUUUGAUAUGCUUCACAGAGACAAAUGCUGCCAAAAUAAACAUCGAAGUACCGACAUGAGUUCUGUUCAGCAGGUUGAAAAGUCUGAUUCCGAAAAACUUUCUAAGUUUUGCAACAGAGGAUUGAGCAUCA
B3: chr11:7467339:7467451:+|3pUTR|ENSG00000170743|unk|FALSE|unique (ssRNA)
RNA: GGGAGUUCUACAGUCCGACGAUCCCAAGAGAAUACCAAGACAAGCAGGCUGUUCCCUGGAAAAAAUCUAAUGCAAGGAGGGCUAGUUCACAGCAAAUUCACUGCCUCCUCCCAUGCACGUGGUAGAGAGUACCAGUAUCAACACAACAGAGGAUUGAGCAUCA
B4: ENSG00000120616:stop:overlap|stop_codon|ENSG00000120616|stop_codon|NA|stop_codon (ssRNA)
RNA: GGGAGUUCUACAGUCCGACGAUCAAUCAGAAAAGCCAGCACUGAACAACAUAGCAGACAACACAGUAGCGAUGGAGGUGACGUAGCUUCCUCCGAGUGGAACUGCAGCCUGGGGACUUGAUUAGGUGCUAUGCAUCAGUAGCACAACAGAGGAUUGAGCAUCA
B5: chr6:134169319:134169461:-|3pUTR|ENSG00000118515|unk|total|mutant (ssRNA)
RNA: GGGAGUUCUACAGUCCGACGAUCUGCAUUCCUGAUAAUUGUAUGUAUUGUAUAAAGAACGUCUGUACAUUGGGUUAUAACACCCGUAUAUUUAAACUUACAGGCUUAUUUGUAAUGUAAACCACCAUUUUAAUGUACUGUAAUCAACAGAGGAUUGAGCAUCA
B6: chr1:155263244:155263345:-|CDS|ENSG00000176444|unk|total|mutant (ssRNA)
RNA: GGGAGUUCUACAGUCCGACGAUCGUAUCUGACCUCAGAGGCAGAGGAACACCACCAGCUCUUCGAUCUGAUUGAAAGCAUGCCCGAGUAUGAACCAGCUAAGCGGCUGACCUUGGGUGAAGCCCUUCAGCAUCCUUUCUUCGCCAACAGAGGAUUGAGCAUCA
B7: chr8:94249252:94250309:-|three_prime_utr|ENSG00000164949|control|control|control (ssRNA)
RNA: GGGAGUUCUACAGUCCGACGAUCUCACCCAGAUGUCCCUUUGAUGGCCGUUGUUGAAGGCCAUUGGGACCAAUAAUCUAUAUUAGAUUGAAUACUUAAGUUAGAUGUGGUUUCCCCCAUUGUAGCAGGGAGCUAGCGUAUUAGCAACAGAGGAUUGAGCAUCA
B8: chr16:5044585:5044836:-|CDS|ENSG00000153446|control|control|control (ssRNA)
RNA: GGGAGUUCUACAGUCCGACGAUCGAGUAGCUGGGACUACAGGAGCGUGCCACCAUACCUGGCUAAUUUUUAUAUUUUUUUAGUAGAGACAGGGUUUCAUCAUGUUGCUCAUGCUGGUCUCGAACUCCUGAUCUCAAGAGAUCCCAACAGAGGAUUGAGCAUCA
B9: chr1:51356092:51356193:-|3pUTR|ENSG00000085832|unk|total|mutant (ssRNA)
RNA: GGGAGUUCUACAGUCCGACGAUCUUCAGAGAUAAGGAAAAAUAUUUUGCACAGAUUUACUCCACUAUGGAAAAGGGAUGCUGCCGGUUGAACCAUUACCGCCUCAGAUUCGAUCUUUUCCUAACUAAAAAUAUUAAAGCCUCACAACAGAGGAUUGAGCAUCA
B10: chr14:39032579:39032680:-|3pUTR|ENSG00000100934|msi1|total|mutant (ssRNA)
RNA: GGGAGUUCUACAGUCCGACGAUCUGAUUUUAUAAUGGUAAUUUUCAUGAUGAUAAUGUUUUUGGUUAUUUGGAAAGACCGUUCCGAGAUGAAAGGUUUUUUUGGGUAACAAUCCCGCAGCUGACAAAAAAUGUGAAAUUUCCACAACAGAGGAUUGAGCAUCA
B11: chr7:17792983:17793084:-|3pUTR|ENSG00000071189|msi1|FALSE|unique (ssRNA)
RNA: GGGAGUUCUACAGUCCGACGAUCGACAUGCCUUAGGUAACUGCAGAAAUAGCAAAUUAAAUGAUUAAUGAGCUUAUUAGUCAUAGUAAACAUACAGAUUCCUAAUUCUAUGACAGUGUACAUAUAUGAAAAUAAAUGAUGAAACAACAGAGGAUUGAGCAUCA
B12: ENSG00000166181:stop:overlap|stop_codon|ENSG00000166181|stop_codon|NA|stop_codon (ssRNA)
RNA: GGGAGUUCUACAGUCCGACGAUCGUGGGAAAUAUAGCAGCAAUUUGGGCAACUUUAAUUAUGAGAGGAGCCUUCAGGGGAAGUAGAGGUGGCCGAGGUUGGGGCACACGAGGAAAUCGUAGUCGGGGAAGACUCUACUGAAUACAACAGAGGAUUGAGCAUCA
B13: chr1:67411267:67411372:-|3pUTR|ENSG00000142864|unk|total|mutant (ssRNA)
RNA: GGGAGUUCUACAGUCCGACGAUCAACUCAUUUCCAAACAUGUACCAUGUUUUAUAAACCUCUUGAUUUCCAGCAACAUACUACCGAAAACACCUGCUACUCAAAACACAACUUCUCAGUGUCAUCCAUUGCUGUCGUGAGAGACAACAGAGGAUUGAGCAUCA
B14: chr8:102207567:102207681:-|3pUTR|ENSG00000048392|unk|FALSE|unique (ssRNA)
RNA: GGGAGUUCUACAGUCCGACGAUCUAUUAAUUGCAAUGAUGUUGUAAUAAAAUACUCUCAUUUCCUUAAAAUAAUUGUGAUUCUAGGUCCUAGGAUCUAGAAUUAGAUCUUUGUAUUUUUAAUGCUUAGGGGAAGAAUAUAAGUCAACAGAGGAUUGAGCAUCA
B15: chr1:31365252:31365939:-|three_prime_utr|ENSG00000121769|control|control|control (ssRNA)
RNA: GGGAGUUCUACAGUCCGACGAUCAUCCAGUUCCAGUUCCCAUGGUGUAUGUGGUUUUUUUUUUUUUUUUUUAACUGCACUCAUAGGGUGCUCUGAGGUCAAUAAAGCAGAGCCAAGGCCACCCAGUUGCCUUUUUGCCUUUGGCAACAGAGGAUUGAGCAUCA
B16: chr20:1375301:1375603:-|CDS|ENSG00000088832|control|control|control (ssRNA)
RNA: GGGAGUUCUACAGUCCGACGAUCGGUAUGCUCUCUCAUUUGUUUUGUUUUGCUUUCUAGUAUUUACCUUUUAUAUUUUUUUAUAGGUGGCAUAUUUAUACGGUUCAAAAAUAAAAAAAGUGAAAAGUCUCACCCUCAUGCCAUCAACAGAGGAUUGAGCAUCA
B17: chr16:85089731:85089832:+|3pUTR|ENSG00000135709|msi1|FALSE|unique (ssRNA)
RNA: GGGAGUUCUACAGUCCGACGAUCUUGGAAGGUUUCCCUCCGGGGAAUGCCUCCCUGGAAUGUUCCAGAGACGGAACAUUCUCUAGAGACAACAGUCUGUGCUGCAGAUUGGUUGGAUCACAGAAUGUGUGUCUGGGGCAUUAUCAACAGAGGAUUGAGCAUCA
B18: chr16:18805221:18805325:-|3pUTR|ENSG00000157106|unk|FALSE|bound_elsewhere (ssRNA)
RNA: GGGAGUUCUACAGUCCGACGAUCAAGAAUUCUAUGUUCUGAAAUGCACACUUUUAGAAUGUUUUUCUUUGAAAACAGGCUAAUAGUUUUUUCUUUUUUUGACAAAGUUUCAGCUCCUCUUUAAAGUUAUUGUGUCAUUUUUCUCAACAGAGGAUUGAGCAUCA
B19: ENSG00000070961:be:win_4701|3pUTR|ENSG00000070961|bound_else_gene|NA|bound_elsewhere_windowed (ssRNA)
RNA: GGGAGUUCUACAGUCCGACGAUCUUUUCUAAUCUUUAGAGACCUUCACACAGCAUGAGGGCUGUUGGCAUUUUGAAAAAGGUUAAUAAGUAGAAGCAUACAUGUUUUCCUUUUGUUUUUGAAACUUGUUUGUAAACAUAAAUACAACAGAGGAUUGAGCAUCA
B20: chr15:78897113:78897311:+|3pUTR|ENSG00000185787|unk|total|mutant (ssRNA)
RNA: GGGAGUUCUACAGUCCGACGAUCUAACAAUUGAUGUUUGUUUUCUGUUUGAUUUUAAACAGAGAAAAAAUAAAAGGGGGUAACCGCUCCUUUUUUCUUCUUUCUUUUUUUUUUUCAUUUCAAAAUUGCUGCCAGUGUUUUCAACAACAGAGGAUUGAGCAUCA
B21: chr8:47773456:47773635:-|3pUTR|ENSG00000253729|msi1_unk|FALSE|overlapping (ssRNA)
RNA: GGGAGUUCUACAGUCCGACGAUCGUUUUUUCCUUUCAUUUUAUUCUCUUCUAGUUUUGACAUUUUAUGAUAGAUUUGCUCUCUAGAAGGAAACGUCUUUAUUUAGGAGGGCAAAAAUUUUGGUCAUAGCAUUCACUUUUGCUACAACAGAGGAUUGAGCAUCA
B22: chr6:21598408:21598509:+|3pUTR|ENSG00000124766|msi1|FALSE|bound_elsewhere (ssRNA)
RNA: GGGAGUUCUACAGUCCGACGAUCCGUUAAGGGUUUUUGUUUUUAAACUUUUUUUUGCCAUCCAUCCUGUGCAAUAUGCCGUGUAGAAUAUUUGUCUUAAAAUUCAAGGCCACAAAAACAAUGUUUGGGGGAAAAAAAAGAAAACAACAGAGGAUUGAGCAUCA

This is one part of the list.

The target in the experiment is T1, UNK ZnF1-6 (called full-length). Briefly: nsRBNS (natural sequence RNA bind-n-seq); RBNS binding buffer (assumed for nsRBNS): 25 mM Tris pH 7.5, 150 mM KCl, 3 mM MgCl2, 0.01% Triton X-100, 500 ug/ml BSA, 20 U/ml SUPERase-In, 4 C; UNK is unkempt and MSI1 is Musashi-1; names of the RNAs are library labels; protein concentration not given here; high values mean tight binding.
Turning to B1, the binding signal is 13.8 enrichment R. The figure for B2 is 0.348 enrichment R; for B3 it is 0.613 enrichment R. Regarding B4, the binding signal turned out to be 0.62 enrichment R.

Regarding B5, the binding signal was 0.542 enrichment R. Molecule B6 showed a binding signal of 0.48 enrichment R. With B7, the binding signal was 1.75 enrichment R.

As for B8, the binding signal is 2.13 enrichment R. To B9 belongs 0.387 enrichment R; to B10, 0.376 enrichment R. B11 returned a binding signal of 1.33 enrichment R.

The molecule B12 yielded a binding signal of 6.77 enrichment R. In turn, B13 came in with a binding signal of 0.367 enrichment R. B14 displayed a binding signal of 0.471 enrichment R. The figure for B15 is 1.85 enrichment R. On to B16, for which the binding signal amounted to 3.7 enrichment R.

In turn, B17 showed a binding signal of 0.337 enrichment R. B18: the binding signal was 0.773 enrichment R.

B19: the binding signal was found to be 0.479 enrichment R.

Molecule B20 gave a binding signal of 0.744 enrichment R. The molecule B21 came in with a binding signal of 5.42 enrichment R. The figure for B22 is 0.596 enrichment R.
